Test results as given in patent publication US20240325539A1, “METHODS AND COMPOSITIONS FOR TREATING EPSTEIN BARR VIRUS-ASSOCIATED CANCER” (The Chancellor, Masters and Scholars of the University of …, priority 2020, published 2024).
“Also recorded” adds a separate entry of the source.

What was measured:
BZLF1 enhancer = assay: ChIP-qPCR of p53 binding; format: cell-based, EBV
Procedure: Twenty million cells were cross-linked on the plate by adding 1% formaldehyde in the culture medium for 10 min at room temperature. The reaction was stopped by adding 125 mM glycine and incubating for 10 min at room temperature. Cells were washed twice with cold PBS and collected by scraping. Cells were lysed in SDS buffer (1% SDS, 10 mM EDTA, 50 mM Tris pH 8.1) for 30 min on ice. For chromatin shearing, cell lysates were sonicated using the Covaris S220 ultrasonicator (Covaris). One percent of chromatin was conserved as an input sample. Fragmented chromatin was diluted ten times with Chromatin Dilution Buffer (0.01% SDS, 1.1% TritonX-100, 1.2 mM EDTA, 16.7 mM Tris-HCl pH 8.1, 167 mM NaCl) and precleared with Protein A/G magnetic beads mix (ThermoFisher) for 1 h at +4° C. on a rotator. Precleared chromatin was incubated with 5 μg anti-p53 DO1 antibody or anti-mouse IgG overnight on a rotator at +4° C. The day after, samples were incubated with Protein A/G magnetic beads mix for 1 h at +4° C. on a rotator. The beads were collected using magnet and washed five times with cold RIPA washing buffer (50 mM Hepes-KOH PH 7.6, 500 mM LiCl, 1 mM EDTA, 1% NP-40, 0.7% Na-deoxycholate) and twice with TE/NaCl buffer (10 mM Tris pH 8.0, 1 mM EDTA, 50 mM NaCl). DNA was eluted by incubating the beads in Elution buffer (50 mM Tris-HCl, pH 8.0, 10 mM EDTA, 1% SDS) for 30 min at 65° C. […]

YCCEL1 cells [1] = format: cell-based, human
YCCEL1 cells [2] = assay: High content imaging of Zta-positive cells (immunofluorescence)
YCCEL1 cells [3] = assay: Western blot for Zta and total acetylation of histone 3; format: cell-based, human; conditions: for modified (SUMOylated) Zta bands: YCCEL1, anti-Zta immunoblot, topo II inhibitors alone or with chidamide (FIG. 14)
Procedure: Protein concentration was determined by the Bradford assay.

[4] = target: T1, EBV Zta (BZLF1) peptide on HLA-A*23:01 (human); assay: cytokine release
T1 peptide: RYKNRVAS

[5] = target: T2, EBV Zta (BZLF1) peptide on HLA-B*18:01 (human); assay: cytokine release
T2 peptide: CDSELEIKR

[6] = target: T3, EBV Zta (BZLF1) peptide on HLA-B*18:01 (human); assay: cytokine release
T3 peptide: DSELEIKRY

[7] = FIGS. 1C and 9D (YCCEL1; SNU719)

COc1ncc(-c2nc3c(n2C(C)C)[C@H](c2ccc(Cl)cc2)N(c2cc(Cl)cn(C)c2=O)C3=O)c(OC)n1 [HDM201]
p53 binding at the BZLF1 enhancer (BZLF1 enhancer): further increased

O=C(/C=C/c1ccc(CN(CCO)CCc2c[nH]c3ccccc23)cc1)NO [LAQ824]
toxicity (cell number relative to DMSO) (YCCEL1 cells [1]): high toxicity
Zta expression / EBV reactivation (YCCEL1 cells [2]; increasing concentrations (FIG. 1B)): able to reactivate EBV

O=C(/C=C/c1cccc(S(=O)(=O)Nc2ccccc2)c1)NO [PXD101]
induction of Zta expression (Western blot) (YCCEL1 cells [3]; [7]): failure
total histone 3 acetylation (H3-ac) (YCCEL1 cells [3]; [7]): induced detectable H3-ac

CN(C)CCN1C(=O)c2cccc3cc(N)cc(c23)C1=O [amonafide]
modified (SUMOylated) Zta bands (YCCEL1 cells [3]): induced modified 47 kDa Zta bands

Nc1cc(F)ccc1NC(=O)c1ccc(CNC(=O)/C=C/c2cccnc2)cc1 [chidamide]
toxicity (cell number relative to DMSO) (YCCEL1 cells [1]): low toxicity
Zta+ cells (YCCEL1 cells [2]; 5 μM): 5.8%
Zta+ cells (YCCEL1 cells [2]; 10 μM): 14.5%
cells with reactivated EBV (YCCEL1 cells [2]; chidamide 2.5 μM alone): less than 1%

COc1cccc2c1C(=O)c1c(O)c3c(c(O)c1C2=O)C[C@@](O)(C(=O)CO)C[C@@H]3O[C@H]1C[C@H](N)[C@H](O)[C@H](C)O1 [doxorubicin]
modified (SUMOylated) Zta bands (YCCEL1 cells [3]): induced modified 47 kDa Zta bands; also recorded: induced a detectable 60 kDa Zta

Nc1ccccc1NC(=O)c1ccc(CNC(=O)OCc2cccnc2)cc1 [entinostat]
toxicity (cell number relative to DMSO) (YCCEL1 cells [1]): high toxicity at high concentrations

COc1cccc2c1C(=O)c1c(O)c3c(c(O)c1C2=O)C[C@@](O)(C(=O)CO)C[C@@H]3O[C@H]1C[C@H](N)[C@@H](O)[C@H](C)O1 [epirubicin]
p53 binding at the BZLF1 enhancer (BZLF1 enhancer): further increased

O=C1c2c(O)ccc(O)c2C(=O)c2c(NCCNCCO)ccc(NCCNCCO)c21 [mitoxantrone]
modified (SUMOylated) Zta bands (YCCEL1 cells [3]): induced modified 47 kDa Zta bands

Nc1ccccc1NC(=O)c1ccc(CNc2nccc(-c3cccnc3)n2)cc1 [mocetinostat]
toxicity (cell number relative to DMSO) (YCCEL1 cells [1]): high toxicity at high concentrations

Cc1[nH]c2ccccc2c1CCNCc1ccc(/C=C/C(=O)NO)cc1 [panobinostat]
toxicity (cell number relative to DMSO) (YCCEL1 cells [1]): high toxicity

COc1cc([C@@H]2c3cc4c(cc3[C@@H](O[C@@H]3O[C@@H]5CO[C@@H](c6cccs6)O[C@H]5[C@H](O)[C@H]3O)[C@H]3COC(=O)[C@H]23)OCO4)cc(OC)c1O [teniposide]
modified (SUMOylated) Zta bands (YCCEL1 cells [3]): induced modified 47 kDa Zta bands

B1: TCR34 (TCR)
alpha TRAV29*01 TRAJ16*01 CDR3: CAASEGGQKLLF
beta TRBV7-9*03 TRBJ2-4*01 CDR3: CASSAPNSDSAKNIQYF
binding result [4]: recognises

B2: TCR132 (TCR)
alpha TRAV14*01 TRAJ52*01 CDR3: CAMREGSGVGTSYGK
beta TRBV29-1*01 TRBJ2-5*01 CDR3: CSAAGTSGSGETQYF
binding result [5]: recognises

B3: TCR131 (TCR)
alpha TRAV26-2*01 TRAJ47*01 CDR3: CILRDGVGYGNKLVF
beta TRBV9*02 TRBJ2-3*01 CDR3: CASEDRGGTDTQYF
binding result [6]: recognises

B4: TCR9 (TCR)
alpha TRAV13-1*02 TRAJ42*01 CDR3: CAASKEGGGSQGNLIF
beta TRBV20-1*02 TRBJ2-1*01 CDR3: CSARDRGEHPPNDQFF
binding result [6]: recognises
